# Measurements published in the antibiotic and cytotoxicity screens of Wong et al. (2023).
# The other results are listed elsewhere or left out.
# Tested on: HepG2
# Test: cytotoxicity call (relative viability < 0.9)
# Details: 10 µM
row,SMILES,cytotoxicity call
1,Nc1nc2nc[nH]c2c(=S)[nH]1,inactive
2,C[C@H]1CN([C@@H](C)CO)C(=O)c2c(c3ccccc3n2C)-c2ccccc2CO[C@H]1CN(C)C(=O)Nc1ccccc1,inactive
3,C[C@@H]1CN([C@H](C)CO)C(=O)Cc2cc(NS(=O)(=O)c3ccccc3)ccc2O[C@@H]1CN(C)CC1CC1,inactive
4,COc1ccc(S(=O)(=O)Nc2cccc3c2O[C@@H](CN(C)S(=O)(=O)c2ccccc2)[C@@H](C)CN([C@@H](C)CO)C3=O)cc1,inactive
5,C[C@@H]1CN([C@@H](C)CO)C(=O)c2cccc(NC(=O)c3ccc(-c4nccs4)cc3)c2O[C@H]1CN(C)CC1CCCCC1,inactive
6,C[C@H]1CN([C@@H](C)CO)C(=O)c2ccccc2-c2ccccc2CO[C@H]1CN(C)Cc1ccc(Oc2ccccc2)cc1,inactive
7,O=C(O)C[C@H]1C=C[C@@H](NC(=O)c2ccncc2)[C@H](CO)O1,inactive
8,C[C@H]1CN([C@@H](C)CO)C(=O)c2cc(C#Cc3cccnc3)cnc2O[C@@H]1CN(C)S(C)(=O)=O,inactive
9,C[C@H](CO)N1C[C@H](C)[C@@H](CN(C)C(=O)Nc2ccc(C(F)(F)F)cc2)Oc2ccc(NC(=O)Nc3ccccc3)cc2C1=O,inactive
10,C[C@@H]1CCCCO[C@H](CN(C)S(=O)(=O)c2ccc(Cl)cc2)[C@H](C)CN([C@H](C)CO)C(=O)c2cc(NC(=O)NC3CCCCC3)ccc2O1,active
11,CC/C=C/C(=O)N(C[C@@H]1CCCO1)[C@@H]1CC(C(=O)NCCO)=C[C@H](Oc2c(I)cc(CO)cc2OC)[C@H]1O,inactive
12,CCN(CC)c1ccc(N2CC=C[C@@]34O[C@@H]5/C=C\CCCOC(=O)[C@@H]5[C@H]3C(=O)N(CCCCCCO)[C@@H]4C2=O)cc1,inactive
13,COc1ccc(S(=O)(=O)N(C)C[C@H]2Oc3ccc(NC(=O)Nc4cccc5ccccc45)cc3C(=O)N([C@@H](C)CO)C[C@H]2C)cc1,inactive
14,C[C@@H]1CN([C@H](C)CO)C(=O)c2c(c3ccccc3n2C)-c2ccccc2CO[C@@H]1CN(C)C(=O)c1cc(Cl)cc(Cl)c1,inactive
15,COc1ccc(NC(=O)N(C)C[C@@H]2Oc3ncc(C#C[C@@H](C)O)cc3C(=O)N([C@@H](C)CO)C[C@@H]2C)cc1,inactive
16,CN1C(=O)CO[C@H]2CN(C(=O)NCc3cccnc3)C[C@@H]21,inactive

row,SMILES,cytotoxicity call
1,C[C@H]1CN([C@@H](C)CO)S(=O)(=O)c2ccc(C#Cc3cccc(F)c3)cc2O[C@H]1CN(C)S(=O)(=O)c1ccccc1F,inactive
2,CO[C@H]1O[C@H](COS(=O)(=O)O)[C@@H](O[C@@H]2O[C@@H](C(=O)O)[C@@H](OC)[C@H](O)[C@H]2OS(=O)(=O)O)[C@H](O)[C@H]1NS(=O)(=O)O,inactive
3,COC1(NC(=O)Cc2cccs2)C(=O)N2C(C(=O)[O-])=C(COC(N)=O)CSC21.[Na+] (stereo unspecified),inactive
4,O=C(Cc1cccs1)N1c2ccccc2Sc2ccccc21,active
5,Cn1cnc(S(=O)(=O)N[C@@H]2CC[C@@H](CC(=O)NCC3CC3)O[C@@H]2CO)c1,inactive
6,O=S(=O)(NCC[C@H]1CC[C@H](NS(=O)(=O)c2ccccc2Cl)[C@@H](CO)O1)c1ccc(F)cc1,active
7,CC(C)NC(=O)N(C)C[C@@H]1OCCCC[C@H](C)Oc2ccc(NS(=O)(=O)c3cn(C)cn3)cc2C(=O)N([C@H](C)CO)C[C@@H]1C,inactive
8,O=C1NC2=C(C(=O)OC2)[C@H](c2ccccc2)N1,active
9,CN(C)CC(=O)N[C@@H]1C=C[C@H](CC(=O)NCCN2CCCCC2)O[C@@H]1CO,inactive
10,N[C@H](CCC(=O)O)C(=O)O,inactive
11,CO[C@@H]1CN(C)C(=O)c2cc(NC(=O)Nc3ccc(Cl)cc3)ccc2OC[C@@H](C)N(C(=O)Nc2c(C)noc2C)C[C@H]1C,inactive
12,COc1ccc(CN(C)C[C@H]2OCCCC[C@@H](C)Oc3ccc(NS(=O)(=O)c4ccc(F)cc4)cc3C(=O)N([C@@H](C)CO)C[C@@H]2C)cc1,inactive
13,C[C@H](CO)N1C[C@H](C)[C@H](CN(C)S(=O)(=O)c2ccccc2)Oc2ccc(NS(=O)(=O)c3cccs3)cc2CC1=O,inactive
14,C[C@@H]1CCCCO[C@@H](CN(C)Cc2ccccc2)[C@H](C)CN([C@H](C)CO)C(=O)c2cc(NC(=O)Cc3ccccc3)ccc2O1,inactive
15,CCS(=O)(=O)Nc1ccc2c(c1)C(=O)N(C)[C@H]1CC[C@H](CC(=O)N[C@@H]3CCN(Cc4ccccc4)C3)O[C@@H]1CO2,inactive
